Test results reported in paper PMC3517537.
No constants are given. Whether binding was seen depends on the method and setting. Binding seen in cells or lysates may run through a third protein. Some binding calls cover weakened binding; strength is not graded here. For some assays here: Sequences can lack the tags named with a protein.

Sequences of proteins named here, by UniProt entry; tags and fusion partners are left off. A change or cut given only in a name is not applied to a line headed by its entry.
UniProt Q15691: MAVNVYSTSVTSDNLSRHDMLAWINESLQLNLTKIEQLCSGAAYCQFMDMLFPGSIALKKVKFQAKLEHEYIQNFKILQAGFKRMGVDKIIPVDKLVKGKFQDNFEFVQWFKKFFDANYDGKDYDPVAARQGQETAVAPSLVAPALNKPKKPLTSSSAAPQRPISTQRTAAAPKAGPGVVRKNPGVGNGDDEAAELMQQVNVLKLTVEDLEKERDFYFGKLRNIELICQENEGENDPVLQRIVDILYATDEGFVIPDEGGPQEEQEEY

How the values were obtained:
[1] = biological target: T1, GST-hGTSE1 (full-length hGTSE1 fused to GST, pGEX-4T1) (human) (UniProt Q9NYZ3); assay: pull-down; purified GST, GST-hGTSE1 or GST-EB1 immobilised on glutathione-Sepharose 4B beads, incubated with 35S-labeled in vitro translated proteins in 150 mM NaCl, 20 mM Hepes pH 7.5, 0.05% NP-40, 10% glycerol; autoradiography; only the target purified
T1 sequence: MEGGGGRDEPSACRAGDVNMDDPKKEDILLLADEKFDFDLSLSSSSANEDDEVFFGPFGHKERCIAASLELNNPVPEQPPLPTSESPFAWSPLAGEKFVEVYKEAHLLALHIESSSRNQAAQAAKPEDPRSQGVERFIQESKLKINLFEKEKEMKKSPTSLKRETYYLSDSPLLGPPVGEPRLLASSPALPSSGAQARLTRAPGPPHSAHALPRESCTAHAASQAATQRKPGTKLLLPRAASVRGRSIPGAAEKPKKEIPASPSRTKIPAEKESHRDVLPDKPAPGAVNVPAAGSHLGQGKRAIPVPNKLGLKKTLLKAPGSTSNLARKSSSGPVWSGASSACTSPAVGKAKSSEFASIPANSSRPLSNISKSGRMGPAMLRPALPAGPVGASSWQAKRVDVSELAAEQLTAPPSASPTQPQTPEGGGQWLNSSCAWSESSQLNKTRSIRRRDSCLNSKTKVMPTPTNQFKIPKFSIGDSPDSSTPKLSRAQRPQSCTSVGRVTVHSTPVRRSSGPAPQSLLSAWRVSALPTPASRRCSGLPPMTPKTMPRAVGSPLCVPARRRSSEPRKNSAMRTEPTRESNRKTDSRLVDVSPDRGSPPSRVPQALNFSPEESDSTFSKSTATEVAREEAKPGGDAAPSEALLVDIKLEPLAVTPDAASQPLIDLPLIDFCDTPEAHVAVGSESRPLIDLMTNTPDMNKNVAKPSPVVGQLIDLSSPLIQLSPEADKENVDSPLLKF

[2] = biological target: T2, HA-tagged hGTSE1 (pcDNA3-HA-hGTSE1) (human) (UniProt Q9NYZ3); assay: co-IP; HEK293T cells transfected with HA-tagged hGTSE1 and GFP-tagged EB1 or its deletion mutants for 24 h; immunoprecipitation with anti-HA antibody, blot with anti-GFP and anti-HA
T2 sequence: T1 sequence

[3] = biological target: T3, GTSE1 (G-2 and S-phase expressed 1), endogenous (human (endogenous in U2OS)) (UniProt Q9NYZ3); assay: co-IP; U2OS cell lysate (50 mM Tris-HCl pH 8, 150 mM NaCl, 1% Nonidet P-40), anti-GTSE1 antibody prebound to Protein A-Sepharose, 4°C 2 h, anti-GFP as control antibody; Western blot with anti-EB1
T3 sequence: T1 sequence

Substance	binding [2]	further results
in vitro translated 35S-labeled EB1 (from UniProt Q15691 1-268)		binding [1]: binds
EB1, endogenous (from UniProt Q15691 1-268)		binding [3]: binds
C-terminal EB1-GFP fragment containing the EBH domain (residues 143-268) (from UniProt Q15691 143-268) (domain or fragment)	binds	

Further lines, with some results ahead:

binding [2]	Substance	further results
binds	full length EB1-GFP (pEGFP N1-EB1) (from UniProt Q15691 1-268)	
no binding	N-terminal EB1-GFP fragment (residues 1-143) (from UniProt Q15691 1-143) (domain or fragment)	
